{"source": "patent US10238748B2", "about": "“Anti-CDH6 antibody drug conjugates” (Novartis AG, priority 2014, dated 2019)", "molecules": {"B1": {"name": "NOV0690: anti-CDH6 human IgG1 selected from HuCAL PLATINUM phage display; parent of NOV1126 (antibody)", "heavy": "QVQLLESGGGLVQPGGSLRLSCAASGFTFSDHAIDWVRQAPGKGLEWVSVIAGDGSITYYADSVKGRFTISRDNSKNTLYLQMNSLRAEDTAVYYCARDTGVYREYMDVWGQGTLVTVSSASTKGPSVFPLAPSSKSTSGGTAALGCLVKDYFPEPVTVSWNSGALTSGVHTFPAVLQSSGLYSLSSVVTVPSSSLGTQTYICNVNHKPSNTKVDKRV[sequence of human IgG1 Fc not given]", "light": "DIELTQPPSVSVSPGQTASITCSGDAIGTKFAHWYQQKPGQAPVLVIYYDHERPSGIPERFSGSNSGNTATLTISGTQAEDEADYYCYSRASSNLVFGGGTKLTVLGQPKAAPSVTLFPPSSEELQANKATLVCLISDFYPGAVTVAWKADSSPVKAGVETTTPSKQSNNKYAASSYLSLTPEQWKSHRSYSCQVTHEGSTVEKTVAPTECS"}}, "system": "OVCAR-3 ovarian xenograft", "test": "OVCAR-3 ovarian xenograft mouse model", "conditions": "SMCC-DM1 conjugates, single i.v. dose 10 mg/kg, second selection, FIG. 14", "description": "The anti-tumor activity of a selection of anti-CDH6 ADCs were evaluated in the OVCAR-3 ovarian xenograft model. Female NOD-scid-gamma mice were implanted subcutaneously on the right flank with 10×10^6 OVCAR-3 cells containing 50% Matrigel™ (BD Biosciences) in phosphate buffer solution (PBS). The total injection volume containing cells in suspension was 200 μl. Mice were enrolled in the study 29 days post implantation with average tumor volume of 165 mm^3. After being randomly assigned to one of seven groups (n=4/group), mice were administered a single i.v. dose of PBS (10 ml/kg), a non-target isotype control hIgG1-SMCC-DM1 (10 mg/kg), or one of five anti-CDH6-SMCC-DM1 (10 mg/kg). Tumor volumes and body weights were measured twice weekly.\nThe anti-tumor activity of a second selection of anti-CDH6 ADCs were evaluated in the OVCAR-3 ovarian xenograft model. […] Tumor volumes and body weights were measured twice weekly.\nThe anti-tumor activity of a selection of anti-CDH6 ADCs were evaluated in the OVCAR-3 ovarian xenograft model. […] Tumor volumes and body weights were measured 1-2 times weekly.\nFemale NOD-scid-gamma mice were implanted subcutaneously on the right flank with 10×10^6 OVCAR-3 cells containing 50% Matrigel™ (BD Biosciences, San Jose, Calif.) in PBS. […] Tumor volumes and body weights were measured 1-2 times weekly. […]", "data": [{"molecule": "B1", "values": [{"measurement": "anti-tumor response", "value": "elicited a response comparable to that of NOV0712-SMCC-DM1"}]}]}
